Laboratory results reported in the supplement of paper PMC10986608.
The other results are listed elsewhere or left out. Many values rest on one well or one pass, so single values are uncertain.

System: Candida albicans DPL-15
Assay: growth (OD600) after compound treatment (apparently relative to screen median) (relative growth (fraction; screen median 1.02)); DPL-15 is a caspofungin-resistant clinical isolate; higher = more fungal growth (less antifungal activity)
Settings: 25 µM; RPMI 1640; 48 h; 30 °C

SMILES	growth
COC(=O)C(c1ccccc1)(c1ccccc1)C(NC(=O)OCc1ccccc1)c1ccccc1 (stereo not given)	0.94
CC(=O)OC[C@H]1O[C@H](C#Cc2ccccc2F)C=C[C@@H]1OC(C)=O	0.798
COC(=O)[C@H]1C(=O)[C@]2(c3cn(C)c4ccccc34)Oc3c(OC)cc(OC)cc3O[C@@]2(c2ccc(OC)cc2)[C@@H]1c1ccccc1	0.854
CC(=O)OC[C@H]1O[C@H](C#Cc2cccc(Br)c2)C=C[C@@H]1OC(C)=O	0.925
COc1cc(C)c(O)c2c1-c1c(c(O)c3c(OC)cccc3c1O)C2=O	1.18
COc1ccc(-c2[nH]c3cccc(F)c3c(=O)c2O)cc1	active: 0.0901
COc1ccc(N2C(=O)C3=C(C(c4ccccc4)=NCCN3C)C2c2ccc(F)cc2)cc1 (stereo not given)	1.03
C[C@H]1C[C@@H]2CC(=O)N[C@H](Cc3ccccc3)C(=O)N2[C@H]1c1cccc(Br)c1	1.1
C=CCN1c2ccccc2[C@]23CCC(=O)N(CC(=O)OC)C2=NC(C(=O)OC)=C(C(=O)OC)[C@H]13	0.996
CN1CCN=C(c2ccccc2)C2=C1C(=O)N(c1ccccc1)C2c1cccc(C(F)(F)F)c1 (stereo not given)	0.999
COc1ccc(N2C(=O)C3=C(C(C)=NCCN3C)C2c2ccc(C)cc2)cc1 (stereo not given)	1.07
O=C1N(Cc2ccc(F)cc2)c2ccccc2[C@@]12O[C@H](COc1ccccc1)CC1=C2CCC1	1.12
Nc1c(-c2ccc(Cl)cc2)cnc2c(-c3ccc(Cl)cc3)cnn12	1.15
C[C@@H]1Cc2cc3c(cc2[C@]2(O1)C(=O)Nc1ccccc12)OCO3	0.886
C=C(C)[C@@]1(O)C[C@@H](C)[C@]2(O)[C@@H]3CCC4(OCCO4)[C@@]3(O[Si](C)(C)C)CC(C)=C[C@]23O[C@H]13	1.03
CO[C@@H]1[C@H](O)CC[C@]2(O)CN3c4ccccc4[C@@]4(C)O[C@H](CC4=C(C)C)[C@]3(C)[C@@]12O	1.16
C=CC[C@]12C[C@@]3(O[C@H](CCC)N=C3C[C@H](c3ccc(OC)cc3)[C@H]1C)N(Cc1ccncc1)C2=O	0.87
CCOc1ccc(-n2c(C)c3c(C)nnc(NC)c3c2C)cc1	1.01
c1ccc(CCN2CCCC(CN(Cc3ccccc3)C3CC3)C2)cc1 (stereo not given)	0.973
C=CCOc1cc(OCOC)cc2oc(-c3ccc(OC)cc3OCOC)c(OCOC)c(=O)c12	1.01
COC(=O)Cc1cccc2c(=O)c3ccc(C)c(C)c3oc12	1.03
COc1ccc(OC)c(C(=O)c2c(O)cc(O[Si](C(C)C)(C(C)C)C(C)C)cc2OC)c1Br	0.865
CC(C)[C@@H](CN(C(=O)OC(C)(C)C)S(=O)(=O)NC(C)(C)C)N1C(=O)c2ccccc2C1=O	0.941
COc1ccc(N2C(=O)c3[nH]nc(CC(C)C)c3C2c2cccnc2OC)cc1 (stereo not given)	0.974
CO[C@@H]1[C@H](O)CC[C@]2(O)CN(c3nc(-c4ccccc4)cs3)[C@@H](CC=C(C)C)[C@](C)(O)[C@@H]12	1.13
COc1ccc(N2C(=O)c3[nH]nc(CC(C)C)c3C2c2ccc(F)cc2OC)cc1F (stereo not given)	0.946
CC(C)Cc1n[nH]c2c1C(c1ccccc1Br)N(c1ccc3c(c1)OCC(=O)N3)C2=O (stereo not given)	1.02

SMILES	growth
Cc1cc(C)c2c(c1)N=C1CCCC[C@]12Cc1occc(=O)c1OS(C)(=O)=O	1.16
Clc1cccc2ccc(CCCc3ccccc3)nc12	1.05
COc1cccc(Oc2c(C)cccc2C(=O)O)c1OCc1ccccc1	1.07
CC(C)=CCc1ccc(OCC(=O)O)c2oc3ccccc3c(=O)c12	1.1
CCCCCN(C(=O)OC(C)(C)C)S(=O)(=O)NCC	1.19
COc1ccc(-n2nc3c(c2C(C)C)C(c2ccccc2)NC3=O)cc1 (stereo not given)	0.968
CCOC(=O)C(C)(C)CC#CCN(CC#Cc1ccccc1)S(=O)(=O)c1ccc(C)cc1	0.933
CO[C@@H]1[C@H](O)CC[C@]2(O)CN(c3ccc4c(c3)OCO4)[C@@H](CC=C(C)C)[C@](C)(O)[C@@H]12	0.881
C#CCOC[C@H](NC(=O)[C@@H]1C[C@@H](O)CN1)c1ccccc1	0.918
C#CCN1C(=O)N(C(C)=O)C(c2ccccc2)C(C(=O)OC)=C1C (stereo not given)	0.889
COCOc1cc(OC)cc(O)c1C(=O)/C=C/c1ccccc1	1.03
C=CCN1C(=O)C2=C(C(C(C)C)=NCCN2C)C1c1ccccc1 (stereo not given)	0.994
COc1ccc2c(=O)c3c(F)cccc3oc2c1O	1.02
O[C@@H]1C[C@@H](c2ccccc2)[C@]2(c3ccc(Br)cc3)Oc3cc(F)cc(F)c3[C@]12O	1.25
COCCN1C(=O)[C@H]2C[C@@]13O[C@H](c1ccccn1)N=C3C[C@@H]1c3ccccc3C[C@]21C	1.01
CC(=O)C1=C2C=CCCN2C(=O)NC1c1cccc(C)c1 (stereo not given)	1.02
COc1ccc(N2C(=O)c3[nH]nc(CC(C)C)c3C2c2ccccc2OC)cc1F (stereo not given)	1.14
COC(=O)C1=C(C)N(CCc2cccs2)C(NCCc2cccs2)=NC1c1ccc(C)cc1 (stereo not given)	0.918
Cc1nnc(C)c2c1/C=C\OC[C@@H](c1ccccc1)NC(=O)[C@@H]1C[C@@H](O)CN1C(=O)c1cccc-2n1	0.944
C=C(C)[C@@H]1[C@H](c2cc(OC)c(O)c3oc4ccccc4c(=O)c23)C=C(C)C[C@H]1c1cc(OC)c(O)c2oc3ccccc3c(=O)c12	1.1
CCOc1ccccc1-c1cc(=O)[nH]c2cc3c(cc12)OCO3	1.02
COc1ccc(N2C(=O)C3=C(C(C(C)C)=NCCN3)C2c2ccc(F)cc2)cc1 (stereo not given)	1.08
COC(=O)[C@H]1C(=O)[C@]2(c3cccn3C)Oc3c(OC)cc(OC)cc3O[C@@]2(c2ccc(OC)cc2)[C@@H]1c1ccccc1	0.897
[N-]=[N+]=NC(=O)[C@@H]1CCCN1C(=O)/C=C/c1ccccc1	1.05
COC(=O)Cc1nnn2c1[C@H](C)[C@H](c1ccccc1Br)OCC2	0.828
COC(=O)C/C=C/[C@H](C)[C@H](NC(=O)C(F)(F)F)c1ccc(OC)cc1	0.992
CC1([C@@H]2CC[C@]3(CO)CC[C@]4(C)[C@H](CC[C@@H]5[C@@]6(C)CC[C@H](O)C(C)(C)[C@@H]6CC[C@]54C)[C@@H]23)CO1 (stereo not given in full)	1.17

SMILES	growth
CC#C/C(O)=C1/C(=O)OCc2c(OC)cc(OC)cc21	1.01
COc1ccc([C@@H]2[C@@H](C(=O)Nc3ccccc3)[C@H](C(=O)Nc3ccccc3)[C@H]2c2ccc(OC)c(OC)c2)cc1OC	1
CC1(C)CNC(=O)CC2(CCCCC2)CNC(=O)c2cccc(n2)-c2[nH]ncc2C1	1.07
CC(=O)[C@H]1C[C@H]2C3=C(C(=O)OCC3)[C@@H]1O[C@@H]2C	1.06
CCCCc1cccc(Cl)n1	1.12
COC(=O)C1=C(C)N(Cc2ccc(F)cc2)C(=S)NC1c1cccc(Br)c1 (stereo not given)	0.951
CC(=O)N[C@H]1CCN(C(=O)c2c(O)cc(O)cc2Nc2cnn(C)c2)C1	1.01
CCO[C@H]1CCN(C(=O)c2c(O)cc(O)cc2Nc2cn(C)nc2C)C1	1.12
COC(=O)C1=C(C)N(CC#C[Si](C)(C)C)C(=O)NC1c1ccccc1 (stereo not given)	0.988
Cc1ccc(S(=O)(=O)N/N=C/c2cccc(C(=O)NCC3(CC(=O)ON4C(=O)CCC4=O)CCCCC3)c2)cc1	0.951
CC(C)[C@H]1NC(=O)C[C@H]2C[C@H](C)[C@H](c3ccccc3)N2C1=O	1.09
CCNC(=O)c1cc(-c2c(O)cc(O)cc2Nc2ccn(C)n2)on1	1.02
CO[C@@H]1[C@H](O)CC[C@]2(O)CN3[C@@H](Cc4ccccc4)C(=O)O[C@H](CC=C(C)C)[C@]3(C)[C@@H]12	1.16
CC(=O)C1=C2C=CCCN2C(=O)NC1c1ccccc1C(F)(F)F (stereo not given)	0.935
O=S(=O)(NCC(F)(F)F)OCCCc1ccccc1	1.1
CC(C)Cc1n[nH]c2c1C(c1ccc(F)cc1)N(c1ccc3c(c1)OCCO3)C2=O (stereo not given)	1.18
COC(=O)c1c(O)ccc2oc3cc(C)cc(O)c3c(=O)c12	0.665
COC(=O)C/C=C/[C@H](C)[C@H](NC(=O)C(F)(F)F)c1ccc(C(F)(F)F)cc1	1.04
CC(C)(C)NS(=O)(=O)OCCCN1C(=O)c2ccccc2C1=O	1.08
COc1cc2c(c(OC)c1OC)[C@@]1(c3ccccc3)CCCC[C@H]1[C@@H]2NC(=O)C(F)(F)F	1.06
COc1cc(OC)c2c(=O)ccoc2c1I	0.977
CC(C)c1c2c(nn1-c1ccc(F)cc1)C(=O)NC2c1ccc(Br)cc1 (stereo not given)	0.896
CNS(=O)(=O)OCCC(C)CCCC(C)C (stereo not given)	1.1
C=CCC1=C(OC)[C@@]2(CC=C)C[C@H](Cc3ccc(OC)cc3)[C@@](C(=O)c3ccccc3)(C1=O)C2=O	1.1
COc1ccc(N2C(=O)c3[nH]nc(CC(C)C)c3C2c2cccc(F)c2)cc1 (stereo not given)	0.904
C=CCN1C(=O)[C@H]2[C@H]3c4ccccc4[C@]([C@@H](COC)OC)(c4ccccc43)[C@H]2C1=O	1.11
